Results as given in patent US7410975B2, “Small molecule toll-like receptor (TLR) antagonists” (Coley Pharmaceutical Group, Inc., priority 2003, dated 2008).
Structures can show the parent of a compound that is named as a salt.

Target: T1, human TLR7 (hTLR7) (Homo sapiens, UniProt Q9NYK1)
T1 construct: expressed in transfected cells
T1 sequence (Q9NYK1 27-1049): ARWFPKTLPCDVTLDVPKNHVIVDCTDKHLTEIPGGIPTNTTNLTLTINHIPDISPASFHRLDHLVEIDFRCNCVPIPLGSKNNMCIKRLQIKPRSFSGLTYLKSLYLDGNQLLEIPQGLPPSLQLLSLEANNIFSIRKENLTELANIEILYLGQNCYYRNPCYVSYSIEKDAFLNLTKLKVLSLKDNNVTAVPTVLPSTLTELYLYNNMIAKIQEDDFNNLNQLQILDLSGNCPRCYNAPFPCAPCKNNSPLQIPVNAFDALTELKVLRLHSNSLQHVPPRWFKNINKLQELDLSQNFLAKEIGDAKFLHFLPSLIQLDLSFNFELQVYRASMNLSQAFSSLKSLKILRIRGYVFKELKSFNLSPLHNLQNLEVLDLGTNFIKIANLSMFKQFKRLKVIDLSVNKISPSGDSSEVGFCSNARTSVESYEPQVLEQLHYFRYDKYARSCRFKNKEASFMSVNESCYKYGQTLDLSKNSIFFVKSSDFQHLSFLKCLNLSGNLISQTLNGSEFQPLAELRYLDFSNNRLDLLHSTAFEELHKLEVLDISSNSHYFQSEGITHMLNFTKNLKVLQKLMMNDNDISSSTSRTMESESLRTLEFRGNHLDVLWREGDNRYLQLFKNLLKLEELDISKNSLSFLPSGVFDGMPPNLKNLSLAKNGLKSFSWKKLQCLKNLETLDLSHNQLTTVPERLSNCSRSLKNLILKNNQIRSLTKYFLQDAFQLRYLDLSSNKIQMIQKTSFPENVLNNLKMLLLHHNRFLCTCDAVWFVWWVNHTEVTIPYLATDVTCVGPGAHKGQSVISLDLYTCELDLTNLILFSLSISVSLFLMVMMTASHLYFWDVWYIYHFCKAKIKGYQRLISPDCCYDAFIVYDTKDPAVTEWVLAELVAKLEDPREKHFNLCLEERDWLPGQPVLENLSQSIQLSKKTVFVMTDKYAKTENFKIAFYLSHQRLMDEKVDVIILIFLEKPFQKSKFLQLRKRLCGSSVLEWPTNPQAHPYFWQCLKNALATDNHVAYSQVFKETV
Test: Antagonist screen, hTLR7-NFκB-293 cells, NF-κB-luciferase reporter, with EC50 of R848
Assay type: cell-based
Settings: compound at 0.5, 5, 50 μg/ml, EC50 concentration of R848, 16 h
Experimental: The method is described in greater detail as follows. The cells for each individual cell clone (hTLR3-NFκB-293, hTLR7-NFκB-293, hTLR8-NFκB-293 and hTLR9-NFκB-293) were counted and seeded one day before the stimulation at 1.5×10^4 cells per well in 96-well cell culture plates. To become adherent the cells were incubated after seeding overnight at 37° C. in 5% CO2 humidified air.
The screen for each compound was performed at the same time for all of the receptors TLR3, TLR7, TLR8 and TLR9. Up to fifteen test compounds, each assayed in duplicate at each of three different final concentrations (0.5 μg/ml, 5 μg/ml, and 50 μg/ml), were used for 16 h cell stimulation on a single multiwell culture plate. A 4× final concentration master plate was created to prepare the different test compounds before they were added to the cells.
Controls were added as duplicates individually for each cell clone on the cell culture plate. Positive controls were used as follows (final concentrations): 50 μg/ml poly(I:C) for hTLR3-NFκB-293; 8 μM resiquimod (R848) for hTLR7-NFκB-293; 30 μM R848 for hTLR8-NFκB-293; and 2.5 μM CpG-ODN 2006 for hTLR9-NFκB-293. Media alone was used as negative control. After addition of controls and small molecules, the cell clones were additionally stimulated with the EC50 concentration of the appropriate receptor-specific ligand. […]
The baseline result (measured with addition of the EC50 concentration of the receptor-specific ligand) for each cell culture plate was measured as described above. Antagonistic effects were measured by down regulation compared to the baseline. Antagonists were scored as follows: • 13: compounds for which there was clear down regulation at 0.5 μg/ml, 5 μg/ml, and 50 μg/ml; • 12: compounds for which there was clear down regulation at 5 μg/ml and 50 μg/ml; • 11: compounds for which there was clear down regulation only at 50 μg/ml; • —: compounds for which there was no clear down regulation even at 50 μg/ml. […]
Results were expressed as fold induction over baseline luciferase activity measured in the absence of R848. […]

CN1CCC[C@@H]1CCO[C@](C)(c1ccccc1)c1ccc(Cl)cc1.O=C(O)/C=C/C(=O)O [compound 306, Clemastine fumarate]
hTLR7 (inhibitory effect, antagonist score): 12 (compounds for which there was clear down regulation at 5 μg/ml and 50 μg/ml)

Cc1ccccc1C(OCCN(C)C)c1ccccc1 (stereo not drawn) [compound 239, Orphenadrinehydrochloride]
hTLR7 (inhibitory effect, antagonist score): — (compounds for which there was no clear down regulation even at 50 μg/ml)

CN1CCN2c3ccccc3Cc3ccccc3C2C1.Cl (stereo not drawn) [compound 99, Mianserinehydrochloride]
hTLR7 (inhibitory effect, antagonist score): — (compounds for which there was no clear down regulation even at 50 μg/ml)
